Measurements published in PMC4942575.
No constants are given. Whether binding was seen depends on the method and setting. In cells and extracts the contact can be indirect. Some entries that bind do so weakly or less than the wild type. Where a sequence is shown, tags or fusion partners need not be part of it.

Sequences of proteins named here, by UniProt entry; tags and fusion partners are left off.
UniProt Q39026: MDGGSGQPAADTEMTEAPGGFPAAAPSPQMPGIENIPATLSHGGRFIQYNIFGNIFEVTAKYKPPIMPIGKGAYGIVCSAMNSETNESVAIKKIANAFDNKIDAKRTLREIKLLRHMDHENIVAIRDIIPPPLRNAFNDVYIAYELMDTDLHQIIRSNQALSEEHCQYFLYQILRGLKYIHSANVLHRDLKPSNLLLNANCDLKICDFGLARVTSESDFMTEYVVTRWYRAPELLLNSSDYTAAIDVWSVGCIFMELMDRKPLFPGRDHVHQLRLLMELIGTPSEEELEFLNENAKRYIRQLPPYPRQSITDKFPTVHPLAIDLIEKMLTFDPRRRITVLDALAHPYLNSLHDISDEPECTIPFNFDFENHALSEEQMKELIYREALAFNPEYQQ

Key:
[1] = molecular target: T1, MPK3-GFP (Arabidopsis) (UniProt Q39023); experiment: co-IP; as a7, protoplasts treated with 5 mM EGTA for 1 h before extraction
T1 sequence: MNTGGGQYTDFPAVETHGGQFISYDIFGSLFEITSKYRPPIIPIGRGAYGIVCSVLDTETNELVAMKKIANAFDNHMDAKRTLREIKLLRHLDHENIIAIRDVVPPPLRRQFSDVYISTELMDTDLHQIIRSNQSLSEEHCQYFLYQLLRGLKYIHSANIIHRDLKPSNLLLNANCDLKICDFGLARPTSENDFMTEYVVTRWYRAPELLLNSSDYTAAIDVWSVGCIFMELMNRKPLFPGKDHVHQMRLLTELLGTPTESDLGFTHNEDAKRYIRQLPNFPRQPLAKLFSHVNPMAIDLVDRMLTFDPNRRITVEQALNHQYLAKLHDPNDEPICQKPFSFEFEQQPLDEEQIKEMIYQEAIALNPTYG

[2] = molecular target: T2, MKK5-GFP (Arabidopsis) (UniProt Q8RXG3); experiment: as above
T2 sequence: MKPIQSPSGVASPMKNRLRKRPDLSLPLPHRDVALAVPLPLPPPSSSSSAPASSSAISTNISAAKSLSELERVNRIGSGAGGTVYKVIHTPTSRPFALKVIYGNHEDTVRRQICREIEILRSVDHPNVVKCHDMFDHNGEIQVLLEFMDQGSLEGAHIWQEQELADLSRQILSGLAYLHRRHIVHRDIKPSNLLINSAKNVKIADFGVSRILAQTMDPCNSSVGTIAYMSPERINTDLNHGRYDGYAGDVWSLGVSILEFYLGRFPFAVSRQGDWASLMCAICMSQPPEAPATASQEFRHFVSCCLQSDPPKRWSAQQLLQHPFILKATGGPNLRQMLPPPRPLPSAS

[3] = molecular target: T3, MKK4-GFP (Arabidopsis) (UniProt O80397); experiment: as above
T3 sequence: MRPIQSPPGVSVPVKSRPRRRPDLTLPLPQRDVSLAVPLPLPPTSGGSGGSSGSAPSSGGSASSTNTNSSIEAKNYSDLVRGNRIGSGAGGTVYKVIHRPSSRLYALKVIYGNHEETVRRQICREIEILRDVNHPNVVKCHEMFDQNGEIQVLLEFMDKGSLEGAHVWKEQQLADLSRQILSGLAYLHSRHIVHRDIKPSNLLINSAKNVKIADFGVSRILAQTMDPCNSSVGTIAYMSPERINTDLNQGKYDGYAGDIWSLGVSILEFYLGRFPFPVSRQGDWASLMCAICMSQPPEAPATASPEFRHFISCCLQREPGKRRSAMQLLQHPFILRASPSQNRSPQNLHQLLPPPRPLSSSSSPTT

[4] = molecular target: MPK6-GFP (Arabidopsis) (UniProt Q39026); experiment: as above
[5] = molecular target: T1, MPK3-GFP (Arabidopsis); experiment: co-IP; as a7, protoplasts treated with 10 μg ml^-1 R18 peptide for 1 h before extraction
[6] = molecular target: T2, MKK5-GFP (Arabidopsis); experiment: as above
[7] = molecular target: T3, MKK4-GFP (Arabidopsis); experiment: as above
[8] = molecular target: MPK6-GFP (Arabidopsis) (UniProt Q39026); experiment: as above
[9] = molecular target: T1, MPK3-GFP (Arabidopsis); experiment: co-IP; Arabidopsis protoplasts (wild type and cas-1) co-transfected with MPK3/MPK6-GFP or MKK4/MKK5-GFP and 14-3-3ω-FLAG; untreated, 1 mM CaCl2 for 1 h, or Lin and NF treatment; anti-GFP beads, anti-FLAG immunoblot
[10] = molecular target: T2, MKK5-GFP (Arabidopsis); experiment: as above
[11] = molecular target: T3, MKK4-GFP (Arabidopsis); experiment: as above
[12] = molecular target: MPK6-GFP (Arabidopsis) (UniProt Q39026); experiment: as above

- binding [1]: no binding (condition: with 5 mM EGTA)
- binding [2]: no binding (condition: with 5 mM EGTA)
- binding [3]: no binding (condition: with 5 mM EGTA)
- binding [4]: no binding (condition: with 5 mM EGTA)
- binding [9]: binds
- binding [10]: binds
- binding [11]: binds
- binding [12]: binds
B1: 14-3-3ω-FLAG (protein, UniProt Q01525 1-259)
chain: MASGREEFVYMAKLAEQAERYEEMVEFMEKVSAAVDGDELTVEERNLLSVAYKNVIGARRASWRIISSIEQKEESRGNDDHVTAIREYRSKIETELSGICDGILKLLDSRLIPAAASGDSKVFYLKMKGDYHRYLAEFKTGQERKDAAEHTLAAYKSAQDIANAELAPTHPIRLGLALNFSVFYYEILNSPDRACNLAKQAFDEAIAELDTLGEESYKDSTLIMQLLRDNLTLWTSDMQDDAADEIKEAAAPKPTEEQQ
- binding [5]: no binding (condition: with 10 μg ml^-1 R18 peptide)
- binding [6]: no binding (condition: with 10 μg ml^-1 R18 peptide)
- binding [7]: no binding (condition: with 10 μg ml^-1 R18 peptide)
- binding [8]: no binding (condition: with 10 μg ml^-1 R18 peptide)
